The assay deals with RPE1. Briefly: nucleolar normality score relative to DMSO (fraction of DMSO control); RPE1 is a non-cancer human cell line; higher = more normal nucleoli (less nucleolar stress). The settings on record: 24 h.

Structures can show the parent of a compound that is named as a salt. This is one part of the list.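 How the source made its calls: active = more than 2 SD below the DMSO mean: under 0.85 at 10 µM or 0.885 at 1 µM; inactive = the rest.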 Many values rest on one well or one pass, so single values are uncertain.
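Further: fixed cells immunolabelled for nucleolin and UBF, 40 image fields per well in 384-well plates, per-cell score = nucleolin nucleolar/nucleoplasm intensity ratio divided by the matching UBF ratio.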

On to `CC[C@@H](N)CNc1ccnc(-c2cc(-c3cnn(C)c3)ccc2O)n1`, for which the nucleolar normality score (1 µM) is inactive: 0.983 and the nucleolar normality score (10 µM) was inactive: 0.972.

With `O=CN1CC/C(=C/c2ccc3c(c2)OCO3)C1=O`, the nucleolar normality score by setting is: (1 µM) inactive: 1; (10 µM) inactive: 1.1.

As for `O=C(NC1CCNCC1)c1n[nH]cc1NC(=O)c1c(Cl)cccc1Cl`, the nucleolar normality score runs as follows: (1 µM) inactive: 1.07; (10 µM) inactive: 1.07.

Turning to `O[C@@H](COc1cccc2ncccc12)CN1CCN(C2c3ccccc3[C@@H]3[C@H](c4ccccc42)C3(F)F)CC1` (stereo partly specified), the nucleolar normality score (1 µM) was inactive: 1.04 and the nucleolar normality score (10 µM) was inactive: 1.11.

As for `NS(=O)(=O)NCCNc1nonc1/C(=N/O)Nc1ccc(F)c(Br)c1`, the nucleolar normality score is active: 0.866 (1 µM) and inactive: 0.891 (10 µM).

As for `CCC(=O)NCC[C@@H]1CCc2ccc3c(c21)CCO3` [Ramelteon], the nucleolar normality score is, setting by setting: (1 µM) inactive: 1.05; (10 µM) inactive: 1.05.

In the case of `COC1(c2sc3c(N4CCOCC4)nc(-c4cnc(N)nc4)nc3c2C)COC1`, the nucleolar normality score is inactive: 0.961 (1 µM) and active: 0.771 (10 µM).

For the compound `CN1CCN(C(=O)C=Cc2ccc([N+](=O)[O-])o2)CC1`, the nucleolar normality score (1 µM) was inactive: 0.983 and the nucleolar normality score (10 µM) is inactive: 0.988.

Consider `CC(C)C[C@H](NC(=O)CNC(=O)c1cc(Cl)ccc1Cl)B1OC(=O)CC(CC(=O)O)(C(=O)O)O1` (stereo partly specified) [Ixazomib Citrate (MLN9708)], for which the nucleolar normality score (1 µM) is inactive: 1.06 and the nucleolar normality score (10 µM) was inactive: 0.906.

`COc1cc(C[C@H]2C(=O)OC[C@@H]2Cc2ccc(OC)c(OC)c2)ccc1O` [(-)-Arctigenin]: the nucleolar normality score was inactive: 1.1 (1 µM) and inactive: 1.1 (10 µM).

Regarding `Cc1ccc(NC(=O)Nc2cc(C(F)(F)F)ccc2F)cc1Nc1ccc2c(c1)NC(=O)/C2=C\c1ccc[nH]1`, the nucleolar normality score is, setting by setting: (1 µM) inactive: 0.941; (10 µM) inactive: 1.01.

On to `CNC(=O)c1ccccc1Sc1ccc2c(/C=C/c3ccccn3)n[nH]c2c1` [Axitinib], for which the nucleolar normality score reads like this: (1 µM) inactive: 1.04; (10 µM) inactive: 1.21.

For `C[C@H]1CNC(=O)c2cnn3ccc(nc23)N[C@H](C)c2cc(F)ccc2O1`, the nucleolar normality score (1 µM) is inactive: 1.02 and the nucleolar normality score (10 µM) is inactive: 1.03.

As to `CCOc1cc(N2CCC(O)CC2)ccc1Nc1ncc2c(n1)N(C)c1ccccc1C(=O)N2C`, the nucleolar normality score reads like this: (1 µM) inactive: 1.02; (10 µM) inactive: 1.01.

As for `O=C1c2ccccc2-c2n[nH]c3cccc1c23`, the nucleolar normality score is, setting by setting: (1 µM) inactive: 1.07; (10 µM) inactive: 1.11.

`O=C(c1ccc(OCCN2CCCCC2)cc1)c1c(-c2ccc(O)cc2)sc2cc(O)ccc12` [Raloxifene HCl]: the nucleolar normality score reads like this: (1 µM) inactive: 1.01; (10 µM) inactive: 1.09.

For the compound `CNC(=O)c1ccc(N2C(=S)N(c3cnc(C#N)c(C(F)(F)F)c3)C(=O)C23CCC3)cc1F`, the nucleolar normality score was inactive: 1.04 (1 µM) and inactive: 0.907 (10 µM).

In the case of `CO[C@H]1CC[C@H](N2C(=O)CNc3ncc(-c4ccc(C(C)(C)O)nc4)nc32)CC1`, the nucleolar normality score (1 µM) is inactive: 1.05 and the nucleolar normality score (10 µM) was inactive: 0.996.

Source of the values: the supplement of paper PMC10723795.
